Reference: the GPR68 mutational scans of Howard et al. (2025)
Scores with a large standard error are left out. Two further conditions of the source, in which the scores hardly spread, are not listed. Read del as a deletion of the residues named and ins as an insertion between two positions. For some of these results: How much ogerin was present is not stated here.

B1: GPR68, Q15743 (parent)
chain: MGNITADNSSMSCTIDHTIHQTLAPVVYVTVLVVGFPANCLSLYFGYLQIKARNELGVYLCNLTVADLFYICSLPFWLQYVLQHDNWSHGDLSCQVCGILLYENIYISVGFLCCISVDRYLAVAHPFRFHQFRTLKAAVGVSVVIWAKELLTSIYFLMHEEVIEDENQHRVCFEHYPIQAWQRAINYYRFLVGFLFPICLLLASYQGILRAVRRSHGTQKSRKDQIQRLVLSTVVIFLACFLPYHVLLLVRSVWEASCDFAKGVFNAYHFSLLLTSFNCVADPVLYCFVSETTHRDLARLRGACLAFLTCSRTGRAREAYPLGAPEASGKSGAQGEEPELLTKLHPAFQTPNSPGSGGFPTGRLA

Experiments:
[1] = variants of: B1; experiment: cAMP reporter score (Enrich2 score, wild type = 0); higher = more signal; HEK293T, FACS bins
[2] = variants of: B1; experiment: surface expression score (Enrich2 score, wild type = 0); higher = more signal; HEK293T, FACS bins

Variant | cAMP reporter score ([1]; pH 5.5) | cAMP reporter score ([1]; pH 6) | cAMP reporter score ([1]; pH 6, modulator: ogerin) | cAMP reporter score ([1]; pH 6.5, modulator: ogerin) | surface expression score [2]
MGNITADNSSMSCTIDHTIHQTLAPVVYVTVLVIGFPANCLSLYFGYLQIKARNELGVYLCNLTVADLFYICSLPFWLQYVLQHDNWSHGDLSCQVCGILLYENIYISVGFLCCISVDRYLAVAHPFRFHQFRTLKAAVGVSVVIWAKELLTSIYFLMHEEVIEDENQHRVCFEHYPIQAWQRAINYYRFLVGFLFPICLLLASYQGILRAVRRSHGTQKSRKDQIQRLVLSTVVIFLACFLPYHVLLLVRSVWEASCDFAKGVFNAYHFSLLLTSFNCVADPVLYCFVSETTHRDLARLRGACLAFLTCSRTGRAREAYPLGAPEASGKSGAQGEEPELLTKLHPAFQTPNSPGSGGFPTGRLA [V34I] | 0.924 | -0.152 | 0.499 | 1.3 | 1.71
MGNITADNSSMSCTIDHTIHQTLAPVVYVTVLVKGFPANCLSLYFGYLQIKARNELGVYLCNLTVADLFYICSLPFWLQYVLQHDNWSHGDLSCQVCGILLYENIYISVGFLCCISVDRYLAVAHPFRFHQFRTLKAAVGVSVVIWAKELLTSIYFLMHEEVIEDENQHRVCFEHYPIQAWQRAINYYRFLVGFLFPICLLLASYQGILRAVRRSHGTQKSRKDQIQRLVLSTVVIFLACFLPYHVLLLVRSVWEASCDFAKGVFNAYHFSLLLTSFNCVADPVLYCFVSETTHRDLARLRGACLAFLTCSRTGRAREAYPLGAPEASGKSGAQGEEPELLTKLHPAFQTPNSPGSGGFPTGRLA [V34K] | -0.803 | -1.07 | -1.65 | -0.646 | -2.67
